# Measured values as given in US12545639B2, “3-substituted phenylamidine compounds, preparation and use thereof” (PI INDUSTRIES LTD., priority 2019, dated 2026).
# Tested on: Botrytis cinerea
# Experiment: Botrytis cinera test in tomato, preventive, in vivo on plants
# Conditions: 500 ppm spray, bean/chili plants inoculated one day after treatment, rated 3, 7, 10 and 15 days after application, read-out: Efficacy (% control), disease severity compared to the untreated check
row,SMILES,pest or weed control at 500 ppm
1,"CCN(C)C=Nc1cc(C)cc(Cc2cccc(Cl)c2)c1Cl [Compound 27, N′-(2-chloro-3-(3-chlorobenzyl)-5-methylphenyl)-N-ethyl-N-methylformimidamide]",≥ 70%
2,"CCN(C)C=Nc1cc(C)cc(Nc2cccc(C)c2)c1Cl [Compound 36, N′-(2-chloro-5-methyl-3-(m-tolylamino)phenyl)-N-ethyl-N-methylformimidamide]",≥ 70%
3,"CCN(C)C=Nc1cc(F)cc(N(C)c2cccc(OC)c2)c1C [Compound 39, N-ethyl-N′-(5-fluoro-3-((3-methoxyphenyl)(methyl)amino)-2-methylphenyl)-N-methylformimidamide]",≥ 70%
4,"CCN(C)C=Nc1cc(C)cc(Cc2ccccc2Br)c1Cl [Compound 45, N′-(3-(2-bromobenzyl)-2-chloro-5-methylphenyl)-N-ethyl-N-methylformimidamide]",≥ 70%
5,"CCN(C)C=Nc1cc(C)cc(N(C)c2cccc(OC)c2)c1Cl [Compound 49, N′-(2-chloro-3-((3-methoxyphenyl)(methyl)amino)-5-methylphenyl)-N-ethyl-N-methylformimidamide]",≥ 70%
6,"CCN(C)C=Nc1cc(C)cc(N(C)c2ncccn2)c1Cl [Compound 192, N′-(2-chloro-5-methyl-3-(methyl(pyrimidin-2-yl)amino)phenyl)-N-ethyl-N-methylformimidamide]",≥ 70%
7,"CCN(C)C=Nc1cc(C)cc(N(C)c2ccc(OC)c(F)c2)c1Cl [Compound 258, N′-(2-chloro-3-((3-fluoro-4-methoxyphenyl)(methyl)amino)-5-methylphenyl)-N-ethyl-N-methylformimidamide]",≥ 70%
8,"CCN(C)C=Nc1cc(OC)cc(Cc2ccc(C)cc2)c1C [Compound 263, N-ethyl-N′-(5-methoxy-2-methyl-3-(4-methylbenzyl)phenyl)-N-methylformimidamide]",≥ 70%
9,"CCN(C)C=Nc1cc(OC)cc(Cc2cccc(Cl)c2)c1C [Compound 264, N′-(3-(3-chlorobenzyl)-5-methoxy-2-methylphenyl)-N-ethyl-N-methylformimidamide]",≥ 70%
10,"CCN(C)C=Nc1cc(OC)cc(Nc2ccc(OC)c(F)c2)c1C [Compound 269, N-ethyl-N′-(3-((3-fluoro-4-methoxyphenyl)amino)-5-methoxy-2-methylphenyl)-N-methylformimidamide]",≥ 70%
11,"CCN(C)C=Nc1cc(OC)cc(Cc2ccc(F)c(Cl)c2)c1C [Compound 282, N′-(3-(3-chloro-4-fluorobenzyl)-5-methoxy-2-methylphenyl)-N-ethyl-N-methylformimidamide]",≥ 70%
